# Source: publication PMC4336329 (PLoS ONE, 2015)
# Hit rate of the full screen: of about 310,000 compounds, about 14,000 (4.5%) showed an effect of 50% or more. The effect is printed as a negative number. The list shows a part of the results.
# Target: human ether-à-go-go-related gene (hERG) potassium channel (human, UniProt Q12809)
# Experiment: primary screen, population patch clamp on CHO cells stably expressing hERG
# 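Also: peak tail current of the secondary pulse compared with the same well before compound.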
# human ether-à-go-go-related gene (hERG) potassium channel, sequence (Q12809 whole entry, looked up): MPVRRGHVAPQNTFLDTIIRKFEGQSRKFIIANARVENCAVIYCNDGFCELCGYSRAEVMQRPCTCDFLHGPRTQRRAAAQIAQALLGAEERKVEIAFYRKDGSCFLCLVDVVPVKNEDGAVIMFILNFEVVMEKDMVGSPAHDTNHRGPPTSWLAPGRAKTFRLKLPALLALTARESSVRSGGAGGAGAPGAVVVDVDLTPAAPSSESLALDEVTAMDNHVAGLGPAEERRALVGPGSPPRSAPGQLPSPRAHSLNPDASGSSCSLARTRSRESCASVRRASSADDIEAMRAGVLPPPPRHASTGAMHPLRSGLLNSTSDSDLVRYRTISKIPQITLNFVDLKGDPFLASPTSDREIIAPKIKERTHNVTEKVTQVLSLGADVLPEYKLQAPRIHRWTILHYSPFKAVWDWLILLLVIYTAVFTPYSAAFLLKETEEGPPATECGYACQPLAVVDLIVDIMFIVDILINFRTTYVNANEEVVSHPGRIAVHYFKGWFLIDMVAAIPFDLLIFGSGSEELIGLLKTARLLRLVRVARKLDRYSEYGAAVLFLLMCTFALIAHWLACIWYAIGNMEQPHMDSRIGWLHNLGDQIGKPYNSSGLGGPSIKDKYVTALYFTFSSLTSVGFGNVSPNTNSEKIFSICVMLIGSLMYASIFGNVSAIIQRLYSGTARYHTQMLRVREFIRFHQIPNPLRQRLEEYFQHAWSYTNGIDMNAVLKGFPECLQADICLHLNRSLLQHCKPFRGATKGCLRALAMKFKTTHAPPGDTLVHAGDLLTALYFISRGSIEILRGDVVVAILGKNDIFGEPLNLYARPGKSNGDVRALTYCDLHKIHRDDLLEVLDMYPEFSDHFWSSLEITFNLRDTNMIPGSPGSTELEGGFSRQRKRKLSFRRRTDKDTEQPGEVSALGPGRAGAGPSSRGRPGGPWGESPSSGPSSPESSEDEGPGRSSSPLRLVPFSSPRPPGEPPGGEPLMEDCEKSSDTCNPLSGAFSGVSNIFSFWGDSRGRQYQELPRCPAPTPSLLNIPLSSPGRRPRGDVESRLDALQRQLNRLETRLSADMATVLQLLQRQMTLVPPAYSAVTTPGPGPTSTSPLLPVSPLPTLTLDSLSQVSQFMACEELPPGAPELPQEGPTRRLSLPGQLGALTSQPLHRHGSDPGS
row,SMILES,"hERG current change (%, negative = inhibition) at 10uM"
1,COc1cc(OC)cc(-c2nnc(SCC(=O)N3CCOCC3)o2)c1,9.82%
2,CCS(=O)(=O)N1CCCC(C(=O)NC2CCC(C)CC2)C1 (centres unmarked),6.05%
3,CCC(C)C(NS(=O)(=O)c1ccc(C)cc1)C(=O)O (centres unmarked),7.19%
4,COC(=O)Cn1c(=O)c(C(=O)CCl)c(N)n(Cc2ccccc2)c1=O,-0.133%
5,CCN(C(=O)COC(=O)CCCOc1ccccc1)c1c(N)n(Cc2ccccc2)c(=O)[nH]c1=O,15.4%
6,CCOC(=O)c1cnc(Nc2nc3ccccc3o2)nc1CSc1ncccn1,-6.54%
7,CCn1nnc(NC(=O)c2cccc(-c3cc4ccccc4oc3=O)c2)n1,-12.8%
8,COc1ccccc1NC(=O)CCn1c(=O)sc2ccccc21,-13%
9,COCCCNC(=O)C1CCN(S(=O)(=O)N(CC(C)C)CC(C)C)CC1,13.4%
10,COc1ccc(N2CCN(Cc3nnc(-c4ccccc4)o3)CC2)cc1,-0.362%
11,O=C(OCn1ncc(Cl)c(Cl)c1=O)c1ccccc1Cl,-3.88%
12,CCOc1ccc(C(C(=O)NCC2CCCO2)N(C(=O)c2snc(C(N)=O)c2N)c2cccc(F)c2)cc1 (centres unmarked),12.5%
13,COC(=O)C1=C(NC(=O)c2ccc(C)c(C)c2)CCS1,23.5%
14,CC1(C)SC(=S)N(/N=C/c2cccnc2)C1N(O)C(=O)NC1CCCCC1 (centres unmarked),16.1%
15,Cc1cc([N+](=O)[O-])c2c(c1C)C1C=CCC1C(c1ccccn1)N2 (centres unmarked),20.4%
16,CCCCN1C(C(=O)Nc2ncccn2)=C(O)c2ccccc2S1(=O)=O,-3.2%
17,CCn1c(CNC(=O)c2ccco2)nnc1SCC(=O)Nc1ccccc1Cl,7.05%
18,COc1ccc(CCNc2nc(-c3ccccn3)cs2)cc1OC,11.5%
19,Cc1cc(C)n(-c2ccc(C(=O)Oc3ccc4c(c3)OCO4)cc2)n1,4.25%
20,CCOC(=O)c1ccc(-c2ccc(CO)o2)cc1,-6.44%
21,Cc1noc(/C=C/c2cccs2)c1S(=O)(=O)N1CCC(C(=O)NCCCN2CCCC(C)C2)CC1 (centres unmarked),-44.5%
22,CC1=NN(C(=O)c2ccccc2Cl)C(O)(c2ccccc2)C1 (centres unmarked),14.8%

row,SMILES,"hERG current change (%, negative = inhibition) at 10uM"
1,CC(=O)Nc1sc2c(c1C(=O)N1CCOCC1)CCCCC2,17.9%
2,COc1ccc(CC(=O)Nc2cccc(S(=O)(=O)N3CCCCCC3)c2)cc1OC,-10.8%
3,COc1ccccc1C(=O)NC(=O)CSc1nncn1C(C)C,-4.53%
4,CCOC(=O)/C(=N\O)C1=NC(C)(C)Cc2ccccc21,9.1%
5,Cc1ccc(C(=O)C2CCN(C(=S)NCCCOC(C)C)CC2)cc1,-27.7%
6,COC(=O)c1cc(COC(=O)c2ccc3ccccc3n2)oc1C,-6.04%
7,COc1ccccc1-n1c(=O)c(C#N)c(-c2ccc([N+](=O)[O-])cc2)c2cc(C(=O)c3cc(F)ccc3O)cnc21,-4.93%
8,C=CCSc1nc(N2CCOCC2)c2c(c1C#N)CC(C)(C)N(C)C2,-34.5%
9,CCOC(=O)c1c(NC(=O)COC(=O)c2nccnc2N)sc(C(=O)N(C)C)c1C,-18.8%
10,O=C(OCc1ccc(Cl)cc1Cl)c1ccncc1,3.71%
11,O=C(C1CCN(S(=O)(=O)c2cnc[nH]2)CC1)N1CCn2c1nc1ccccc12,-3.78%
12,COc1ccc(-c2nsc(C(=O)N(c3ccc(F)cc3)C(C(=O)NC3CCCC3)c3ccc(OC)cc3)c2N)cc1 (centres unmarked),9.69%
13,CCCN(C(=O)c1cccc(S(=O)(=O)N2CCN(C)CC2)c1)c1c(N)n(Cc2ccccc2)c(=O)[nH]c1=O,0.795%
14,Cc1cc(C)c(CN2CCC(N3CCC(C(=O)NCC4CCCO4)CC3)CC2)cc1C (centres unmarked),-24.4%
15,CCOc1cc(/C=N/n2cnnc2)ccc1OS(=O)(=O)c1ccc(C)cc1,-50.5%
16,O=C(CSc1ccc(F)cc1)Nc1nnc(-c2ccco2)o1,1.86%
17,COC(=O)c1cccc(-n2sc3ccccc3c2=O)c1,17.3%
18,Cc1nn(C)c(C)c1/C=N/O,11.6%
19,Cc1ccc(S(=O)(=O)N2CCC(=O)N(C(COCc3cccc(Cl)c3)C(C)C)CC2)cc1 (centres unmarked),-35.2%
20,O=C(CSC1=Nc2ccccc2C2=NC(CC(=O)NC3CCCCC3)C(=O)N12)NCc1ccco1 (centres unmarked),-29.9%
21,Cc1ccc(NC(=O)c2c(-c3ccccc3)noc2C)nc1,12.2%
22,COc1cc(C2NC(=S)NC(C)=C2C(=O)OC(C)C)ccc1OC(C)C (centres unmarked),-8.79%
